Structures are written as SMILES. Hit rate of the full screen: of about 110,000 compounds, about 230 (0.21%) showed an effect of 50% or more. The list shows a part of the results.
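Note: 30 min substrate incubation versus DMSO and 10 µM JCP410 controls.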

This experiment deals with DPAP1 (Plasmodium falciparum, UniProt Q8IIJ9). The experiment in a line: primary screen, percent inhibition; read by cleavage of a fluorogenic dipeptide substrate; higher = more effect of the substance. The arrangement: species or system P. falciparum D10 trophozoite lysates; single well.
Sequence of DPAP1 (Q8IIJ9 whole entry, looked up): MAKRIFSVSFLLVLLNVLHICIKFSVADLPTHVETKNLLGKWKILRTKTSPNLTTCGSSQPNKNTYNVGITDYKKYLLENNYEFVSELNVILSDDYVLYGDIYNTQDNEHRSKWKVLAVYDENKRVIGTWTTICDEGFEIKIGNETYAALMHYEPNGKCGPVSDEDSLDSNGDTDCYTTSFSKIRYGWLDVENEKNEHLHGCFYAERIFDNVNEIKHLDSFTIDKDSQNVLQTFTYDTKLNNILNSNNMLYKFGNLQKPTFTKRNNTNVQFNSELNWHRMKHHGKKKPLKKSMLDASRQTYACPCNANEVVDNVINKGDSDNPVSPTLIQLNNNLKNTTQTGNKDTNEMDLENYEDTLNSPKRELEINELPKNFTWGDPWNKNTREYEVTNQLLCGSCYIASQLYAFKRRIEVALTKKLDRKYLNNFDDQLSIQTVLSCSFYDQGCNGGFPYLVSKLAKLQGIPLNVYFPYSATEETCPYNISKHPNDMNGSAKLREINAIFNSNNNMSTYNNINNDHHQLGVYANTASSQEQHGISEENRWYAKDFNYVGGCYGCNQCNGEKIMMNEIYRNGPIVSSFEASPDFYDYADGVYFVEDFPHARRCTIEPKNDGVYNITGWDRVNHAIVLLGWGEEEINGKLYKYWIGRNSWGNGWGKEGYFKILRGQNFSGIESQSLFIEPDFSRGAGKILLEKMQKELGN
For the compound `Cc1ccc2nc(NC(=O)C3CCN(S(=O)(=O)c4cccc5nsnc45)CC3)sc2c1`, the “% Inhibition @ 10 uM” value is listed as -1.76%.
Consider `CCOc1ccc(/C=C/c2nc3ccccc3nc2O)cc1`, for which the “% Inhibition @ 10 uM” value is 4.94%.
In the case of `CCCOc1ccc(NC(=O)CCCN2C(=O)c3ccccc3C2=O)cc1`, the “% Inhibition @ 10 uM” value is reported as -5.9%.
Take `CCOc1ccc(-n2c(C)nc3cc(C(=O)N4CCC5(CC4)OCCO5)ccc32)cc1`: the “% Inhibition @ 10 uM” value is listed as -2.17%.
To `O=C(NCCc1c[nH]c2ccccc12)c1cc2c(Cl)ccc3c2n1CCO3` belongs 5.06%; to `Cc1ccc(S(=O)(=O)Nc2cc(C)ccn2)cc1`, 1.69%; to `Cc1ccc(S(=O)(=O)NCCCCCC(=O)N2CCCCC2)cc1`, 0.884%.
Turning to `CC(C)CCNC(=O)c1cccc(C(=O)NCCC(C)C)c1`, the “% Inhibition @ 10 uM” value is -3.18%.
With `CS(=O)(=O)N1CCN(c2ccc([N+](=O)[O-])cc2Cl)CC1`, the “% Inhibition @ 10 uM” value is on record as 0.345%.
`O=C(Cn1ncc2c3ccccc3n(Cc3ccccc3)c2c1=O)NCCCN1CCOCC1`: the “% Inhibition @ 10 uM” value turned out to be 0.137%.
As for `CCOC(=O)c1c(C)[nH]c(C)c1S(=O)(=O)N1CCC(C(=O)N(C)Cc2ccco2)CC1`, the “% Inhibition @ 10 uM” value is given as 1.05%.
On to `COc1ccc(C(=O)n2nc(-c3ccco3)nc2N)cc1`, for which the “% Inhibition @ 10 uM” value was 4.58%.
On to `N#CC1=C(N)N(c2ccccc2Cl)C2=C(C(=O)CC(c3ccccc3)C2)C1c1cccnc1` (stereo not shown), for which the “% Inhibition @ 10 uM” value is reported as -6.62%.
With `N#C/C(=C/c1ccccc1Cl)c1nc(-c2ccccc2)cs1`, the “% Inhibition @ 10 uM” value is reported as -1.97%.
To `O=C1c2ccccc2-c2onc3ccc(Oc4ccccc4)c1c23` belongs 5.8%; to `CC1=C(CCC2(C)OC(=O)N(C3CC(C)(C)NC(C)(C)C3)C2(C)O)C(C)(C)CCC1` (stereo not shown), 3.99%; to `CNC(=O)CCCc1cn(Cc2ccc(C)cc2)c2ccccc12`, 3.27%.
As to `COc1cc(C2C(C#N)=C(N)Oc3cc4c(cc32)OCO4)ccc1OCc1cccc(F)c1` (stereo not shown), the “% Inhibition @ 10 uM” value is -0.366%.
On to `CCCCN(CCCC)C(=O)C1CCCN1S(=O)(=O)c1cccc2nsnc12` (stereo not shown), for which the “% Inhibition @ 10 uM” value amounted to 1.26%.
For the compound `CCc1ccc(NC(=O)CN2C(=O)S/C(=C/c3ccc(O)cc3)C2=O)cc1`, the “% Inhibition @ 10 uM” value was 6.24%.
Regarding `Cc1ccc(C(=O)Nc2ccc(S(=O)(=O)Nc3cc(C)on3)cc2)cc1`, the “% Inhibition @ 10 uM” value is given as -5.1%.
As to `COc1ccc(C2c3sc(O)nc3SC3C4CCC(C4)C23)cc1OC` (stereo not shown), the “% Inhibition @ 10 uM” value turned out to be 31.8%.
Consider `CC(Cc1ccc(F)cc1)N1CCN(Cc2ccccc2)CC1` (stereo not shown), for which the “% Inhibition @ 10 uM” value was -5.31%.
On to `N#CCNC(=O)[C@H](CSCc1ccccc1)NC(=O)OCc1ccccc1`, for which the “% Inhibition @ 10 uM” value is reported as -1.83%.
`O=C(CCSCCC(=O)NCc1ccccc1)NCc1ccccc1`: the “% Inhibition @ 10 uM” value was -3.65%.
As to `O=C1/C(=C/c2ccco2)C(=O)N(c2ccc(Br)cc2)C(=S)N1c1ccccc1`, the “% Inhibition @ 10 uM” value was found to be 16.3%.
Turning to `Cc1nn(Cc2c(Cl)cccc2Cl)c(C)c1NC(=O)c1cc(-c2ccco2)on1`, the “% Inhibition @ 10 uM” value is -0.591%.
Turning to `CCC(=O)Nc1nonc1-c1nc2ccccc2n1Cc1ccc(F)cc1Cl`, the “% Inhibition @ 10 uM” value came out at 1.52%.
For the compound `O=C1NC(c2ccccc2OCc2ccccc2)Nc2ccccc21` (stereo not shown), the “% Inhibition @ 10 uM” value worked out at 3.49%.
For the compound `O=C(O)CCC(=O)Nc1ccccc1C#Cc1ccccc1`, the “% Inhibition @ 10 uM” value is -0.546%.
Under `CC(C)c1ccc(/C=C/C(=O)N2CCOCC2)cc1` stands -1.38%; under `COC(=O)c1ccccc1NC(=O)C(C)Oc1ccccc1` (stereo not shown), 2.64%.
For the compound `CCc1nc(O)c2c(n1)-c1ccccc1CC21CCCCC1`, the “% Inhibition @ 10 uM” value is 5.61%.
As for `COc1ccccc1/C=C(\C#N)c1nc(-c2ccc(-c3ccccc3)cc2)cs1`, the “% Inhibition @ 10 uM” value is on record as -6.07%.
As to `CCC1CCC(N2CCC(C(N)=O)CC2)CC1` (stereo not shown), the “% Inhibition @ 10 uM” value is reported as -3.5%.
Under `O=C(O)c1ccc(-n2cc(CNCc3ccccc3Cl)c3ccccc32)s1` stands -3.53%; under `Cc1cc(/C=C2\SC(N)=NC2=O)c(C)n1-c1ccc(Cl)cc1`, -2.94%; under `CC1=C(C(=O)Nc2cccc(C)c2C)C(c2ccc(F)cc2)NC(=O)N1` (stereo not shown), -4.39%.
As to `CCCCNC(=O)Cn1c2ccccc2c2cnnc(O)c21`, the “% Inhibition @ 10 uM” value is -0.281%.
With `O=C(CSC1=NCCS1)Nc1nc2ccccc2s1`, the “% Inhibition @ 10 uM” value is listed as 2.26%.
To `CCc1nc2sc(C#N)c(N)c2c2c1CCCC2` belongs -1.37%.
To `CC1(C)CC2=Nc3ccccc3NC(c3cccs3)C2=C(O)C1` (stereo not shown) belongs 6.83%; to `Cc1c2c(cc3c1oc(=O)c1ccccc13)CN(Cc1ccccc1)CO2`, -2.57%.
Regarding `O=C1C(Cl)=C(N2CCNCC2)C(=O)c2ccccc21`, the “% Inhibition @ 10 uM” value is reported as 7.68%.
Regarding `CN1CC=C2C(C#N)=C(N)C(C#N)(C#N)C(c3cccc4ccccc34)C2C1` (stereo not shown), the “% Inhibition @ 10 uM” value is listed as -3.48%.
Under `COc1ccc(OC)c(C2NC(=O)NC(C)=C2C(=O)OCC(F)(F)F)c1` (stereo not shown) stands 1.13%; under `CCCN1CCC(NCCOC)CC1`, -2.18%; under `N#CCNC(=O)[C@H](Cc1ccc2ccccc2c1)NC(=O)OCc1ccccc1`, 0.744%.
Take `CC1=NN(c2ccccc2)C(=O)/C1=C\c1cccnc1`: the “% Inhibition @ 10 uM” value is listed as 11%.
`CCSc1nc(-c2cccs2)cc(C(F)(F)F)c1C#N`: the “% Inhibition @ 10 uM” value came out at 82.6%.
For the compound `COc1ccc(CC(=O)Nc2cccc(N)c2)cc1OC`, the “% Inhibition @ 10 uM” value was -4.86%.
Turning to `CCC(C)NC(=O)Cn1nc(C)n2c(cc3cc(C)ccc32)c1=O` (stereo not shown), the “% Inhibition @ 10 uM” value worked out at 3.29%.
For `CCC(=O)N1N=C(c2cccs2)CC1c1ccco1` (stereo not shown), the “% Inhibition @ 10 uM” value is recorded as -6.07%.
Under `COc1ccccc1C(=O)Nc1sc2c(c1C#N)CC(C)(C)NC2(C)C` stands -3.4%.
Take `CCCC[C@H](NC(=O)[C@H](Cc1ccc2ccccc2c1)NC(=O)c1ccc(CN)cc1)C(=O)COCc1ccccc1`: the “% Inhibition @ 10 uM” value is -0.778%.
With `CC(=O)N(C)c1ccc(NC(=O)COc2cc(C)ccc2C)cc1`, the “% Inhibition @ 10 uM” value came to 1.07%.
As to `c1csc(-c2nc3cc4ccccc4cc3[nH]2)c1`, the “% Inhibition @ 10 uM” value was -2.48%.
For `O=C(NCCC1=CCCCC1)C1CCN(S(=O)(=O)c2cccc3cccnc23)CC1`, the “% Inhibition @ 10 uM” value was 3.53%.
Under `CCCCNC(=O)Cn1nc(C)c2c(C)n(-c3ccccc3)nc2c1=O` stands 3.66%; under `COc1cccc(C(=O)Nc2ccc(NC(=O)c3ccccc3)cc2)c1`, -1.91%.
As for `Cc1ccccc1C(=O)n1nc(-c2ccco2)nc1NCc1ccccc1`, the “% Inhibition @ 10 uM” value is on record as 1.9%.
Under `CC(C)(O)C#Cc1ccc(C(=O)N2CCN(c3cccc(Cl)c3)CC2)cc1` stands -3.85%; under `CC(=O)C1=C(C)N=C(S)NC1c1ccccc1F` (stereo not shown), -4.8%.
Consider `COc1ccc([C@@H]2[C@H]3CCCC[C@]3(O)CCN2C(C)=O)c(OC)c1OC`, for which the “% Inhibition @ 10 uM” value is reported as -5.96%.

The record behind these values is paper PMC6919601, “Identification of Plasmodium dipeptidyl aminopeptidase allosteric inhibitors by high throughput screening” (PLoS ONE, 2019).
